# Whole data set: some 33,000 sequences, median “E-score (-0.5 to 0.5)” near -0.013, cut for the highest 2% near 0.3. The list shows a part of the results.
# Molecular target: T1, Msn1 (UniProt P22148)
# T1 sequence: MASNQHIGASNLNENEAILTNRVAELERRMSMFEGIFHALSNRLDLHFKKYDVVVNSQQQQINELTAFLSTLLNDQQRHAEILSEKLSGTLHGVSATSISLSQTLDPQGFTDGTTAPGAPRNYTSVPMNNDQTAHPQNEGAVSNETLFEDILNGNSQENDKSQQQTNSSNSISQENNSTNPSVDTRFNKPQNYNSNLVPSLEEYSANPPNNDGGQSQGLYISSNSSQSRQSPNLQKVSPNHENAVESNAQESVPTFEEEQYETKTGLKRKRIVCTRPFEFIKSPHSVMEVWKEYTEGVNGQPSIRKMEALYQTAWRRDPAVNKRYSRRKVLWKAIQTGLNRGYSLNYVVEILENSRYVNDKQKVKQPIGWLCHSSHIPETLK
# Assay: PBM E-score (8-mer binding enrichment) (E-score (-0.5 to 0.5)); higher = stronger / more preferred TF binding; most listed sequences are background and not binding sites
# Settings: protein concentration: 200 nM; construct: GST-full length
# Procedure, shortened: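 The E-score, a modified Wilcoxon-Mann-Whitney statistic, was computed by the Universal PBM Analysis Suite for every ungapped eight-base word pooled with its reverse complement. Scans behind it were normalised with masliner after bound GST-tagged yeast transcription factors were detected with fluorescent anti-GST. The proteins, at about 100-200 nM, had been applied to universal all-10-mer Agilent arrays made double-stranded by primer extension.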
row,Sequence,PBM E-score
1,TTCCGGAA,0.229
2,AAATCCGT,0.122
3,GACTCTCC,-0.111
4,GACTGACA,0.0916
5,GACAGAAC,0.099
6,ACCCCATG,-0.124
7,CTGCAAGA,-0.119
8,ATAACCAT,-0.0897
9,GCTCCATA,-0.126
10,CGTGCTCC,-0.0405
11,ACCCCGGG,-0.207
12,ATTATCGG,-0.0402
13,GGGAGTCA,-0.286
14,CAAATGGA,0.135
15,CAAGCCAG,-0.0421
16,AGCCTATC,-0.179
17,ACTGTACG,-0.16
18,ATAACGTG,0.0753
19,ACACTGGT,-0.0253
20,AATCCACC,-0.139
21,CCGTACAA,0.216
22,CGAGCCAG,0.0425
23,AAGCTAAA,0.12
24,CAGTTGCG,0.0743
25,ACAGTTTG,-0.032

row,Sequence,PBM E-score
1,CGGTCACC,-0.218
2,ATTTTGAG,0.199
3,AGCGGGCA,-0.334
4,AACAGCTC,-0.105
5,GCGCCCCA,-0.216
6,AGGAAATG,0.155
7,TAAGTAAA,0.00181
8,ACGATTAT,0.174
9,AGCAGGTG,-0.115
10,AACCGCCT,-0.012
11,CACAAAAA,0.195
12,CACTAGCC,-0.0503
13,ATGTGCAA,-0.0959
14,ATATGAAG,0.0526
15,GCTGGTTA,-0.0243
16,CATACCAG,0.0219
17,AAAGTTAG,0.184
18,ATGTCGCC,0.115
19,GTAAGCTA,0.0896
20,ACTTCTGA,-0.0769
21,CAAACAAC,0.185
22,ATAAACCC,0.158
23,ACTACCTC,-0.14
24,TAAGCCGA,0.178
25,AAGTGAGC,-0.206

row,Sequence,PBM E-score
1,CCCACACA,-0.202
2,ACGACCTG,-0.191
3,GGGGATGA,-0.219
4,ACTTACCC,0.0592
5,CCTGATGA,0.0044
6,GACAACGC,0.137
7,AAGAATCG,0.19
8,AGCGTCAG,-0.107
9,ACTTCGTA,-0.114
10,GCCACCCA,-0.322
11,ATCAATTG,0.154
12,ACCTCGCG,-0.0475
13,CTCTTTGA,-0.187
14,ATGAAGGA,0.134
15,GAGTCATC,-0.114
16,AACTCCTT,-0.0416
17,CTGGATGC,-0.271
18,ACGTGCAG,-0.139
19,GTTATGAA,0.105
20,CAATTGAA,0.0128
21,CCGTTGCA,0.0113
22,CGCTGAAG,-0.071
23,ACCTACCG,-0.0682
24,AAGCCTAA,0.019
25,ATGCATGA,-0.00362

row,Sequence,PBM E-score
1,CTAGACTC,-0.309
2,AAGTCTCC,-0.104
3,CATGAGCA,0.0132
4,CAATTGTG,-0.00904
5,ATACCGTC,0.109
6,AGCCACAC,0.11
7,AAACTCAT,0.168
8,CGCAGATC,-0.038
9,CTGATACA,0.0101
10,CGACTACG,-0.097
11,CGAGTCAA,-0.00305
12,CGGCGCCG,0.251
13,TAAACTCA,0.0791
14,AACTCTCC,-0.0972
15,AGACATGC,0.21
16,TGCGTGAA,0.175
17,CGAAACAG,0.0379
18,AAGGGGTA,-0.311
19,AACACCGA,-0.138
20,CAGCTGTC,0.0733
21,AGGTGCAT,0.0811
22,GCTACCAC,-0.175
23,AATCTACT,0.0111
24,GCATCGAA,-0.181
25,AGCTCGCC,-0.126

row,Sequence,PBM E-score
1,GCATCACA,-0.0397
2,GTCTTGCA,-0.00986
3,GCCTACAC,-0.184
4,CTGCGGGA,-0.211
5,ATTCGTGG,-0.0146
6,AGACCGTG,-0.0524
7,ACGTGAGC,-0.164
8,GAATCCGC,-0.0348
9,TAACATCA,0.0674
10,ACCCAGGG,-0.384
11,CCGACCGC,-0.316
12,TAGGACGA,0.135
13,ACGCGTCA,0.184
14,GTCTGACA,0.121
15,AAGTGGCC,-0.29
16,ATTGCGTA,0.0558
17,ATAGCTAT,-0.108
18,CATCCGCG,0.192
19,AATGACGT,-0.0245
20,AAGTACTA,0.199
21,TGATCCAA,-0.0438
22,ACTATACA,0.0458
23,TAATATGA,0.167
24,CGAGGGTA,-0.173
25,ATAAGGAT,0.161

row,Sequence,PBM E-score
1,CGTAATGA,-0.0929
2,CTTGAAGA,-0.0785
3,ACAGCTTA,0.0798
4,CGGCATCA,0.0925
5,GCTGGTAA,-0.181
6,AGTAGTTA,-0.0855
7,GTAAAACA,-0.195
8,CTCGAGAA,0.133
9,ATGCTAGG,-0.0818
10,CGCTATGA,0.0946
11,AGTCGGAT,0.123
12,CGAGCCCA,-0.221
13,ACCGCTAC,-0.215
14,AGTCGCCC,-0.151
15,CGGCGTCC,0.00251
16,CAATGAGC,0.0523
17,AAGTCATT,-0.0134
18,AGAGGTAG,-0.163
19,TATAAAAA,0.318
20,GGTGATGA,0.0664
21,CAACACCA,-0.0253
22,AAACGAAC,0.0897
23,CGCTACCA,-0.176
24,GGAGATGA,-0.0581
25,TACGAGCA,-0.0169

row,Sequence,PBM E-score
1,GTTGCTGA,-0.0728
2,CCTTTTCC,-0.0977
3,ACAAACAC,0.337
4,CATCAACC,0.106
5,CATTTTGC,0.0966
6,GGTCAACA,0.173
7,AGGGATAC,-0.144
8,AACCAGCG,0.021
9,GTTCATGA,0.196
10,CTCAATAC,0.143
11,CATTAGCG,-0.0271
12,AGCGCATG,-0.0257
13,AGAGATGA,-0.0111
14,AGCAGAAA,0.149
15,ATGCTCAG,0.00121
16,ACTAGAAA,-0.026
17,AACCCAAC,-0.00573
18,GATTCCTA,-0.146
19,TAGTCCCA,0.0594
20,ACTTTGAC,0.203
21,ATGAAGCA,-0.0372
22,CGAATCCA,-0.0683
